We go through four molecules from PubChem BioAssay AID1919001 (Molecular Pharmacology Branch, DTP, NCI, 2023).

The source holds more than one record for some entries. Only these are listed. The source may hold further records. Results that share an entry are repeated measurements across runs, samples, wells, individuals or studies. Counts like (3×) stand for listed records that agree.

Broadly, the IC50 is the midpoint of a concentration-inhibition curve.

The subject of this experiment is 699152-130-R-J1-PDC complex spheroid growth. The experiment can be described thus: Anticancer human tumor 699152-130-R-J1-PDC patient-derived pancreatic carcinoma cell line growth inhibition [AhR]. As to conditions: for IC50: compound alone; for viability, T/C: stronger effect = lower value. The text has this:
Multicellular complex tumor spheroid response to aryl hydrocarbon receptor antagonists in combination with a variety of drugs and investigational agents in selected tumor cell lines
The current study was undertaken to assess response to aryl hydrocarbon receptor antagonists in combination with standard-of-care drugs and investigational agents in solid tumor complex spheroid models. Complex spheroids include a stromal component modeled by human endothelial cells (HUVEC) and fibroblasts modeled by human mesenchymal stem cells (MSCs). The concentration ranges selected for each drug and investigational agent were based upon clinically achievable concentrations if the clinical Cmax of the agent was known.
Compounds. The drugs and investigational agents: BAY 2416964 (NSC825713), GNF351 (NSC835774), CH-223191 (NSC835775), CPI-455 (NSC825282), aza-TdCyd (NSC777586), decitabine (NSC127716), belinostat (NSC758774), entinostat (NSC756642), pevonedistat (NSC761192), tazemetostat (NSC777109), talazoparib (NSC765396), olaparib (NSC753686), selinexor (NSC780203), nedisertib (M3814, NSC802822), bortezomib (NSC756655), venetoclax (NSC766270), doxorubicin (NSC123127), elimusertib (BAY189344, NSC800525), ceralasertib (AZD6738, NSC777638), TAK-243 (NSC785004), alisertib (NSC759677), etoposide (NSC141540), topotecan (NSC609699), eribulin (NSC707389), gemcitabine (NSC613327), carboplatin (NSC241240), cisplatin (NSC119875), and SN-38 (NSC673596) were obtained from the National Cancer Institute (NCI) Developmental Therapeutics Program Chemical Repository (32). The FDA-approved anticancer drug set is available from the Developmental Therapeutics Program at https://dtp.cancer.gov/organization/dscb/obtaining/available plates.htm. […] The stock solutions were prepared in dimethyl sulfoxide (DMSO, Sigma-Aldrich, St. Louis, MO, cat. D2650), except for the platinum compounds which were prepared in saline (Quality Biological, Gaithersburg, MD, cat. 114-055-101), at 800-fold the tested concentration and stored at -70 degrees C prior to their use. All drugs and investigational agents were tested over a range starting from a high concentration at or near the clinical Cmax and decreasing in half-log increments. If the clinical Cmax for an agent had not been determined, the highest concentration tested was 10 microM (Table 1).
Cell Culture. All cells were maintained in an incubator at 37 degrees C and 5% CO2 with 95% humidity. The PDC lines were cultured according to standard operating procedures established by the NCI PDMR (https://pdmr.cancer.gov). Briefly, all PDCs were thawed and cultured in Matrigel-coated flasks prepared with a working solution of 1X Ham's F-12 nutrient mix, without supplementation (Invitrogen, Waltham, MA, cat. 11765054), 100 U/mL penicillin-streptomycin (Invitrogen, cat. 15140122), and 2.5% Matrigel (Corning Inc., Corning, NY, cat. 354248) for the first three passages. All PDCs were cultured in complete DMEM/F-12 media containing advanced DMEM/F-12 (Invitrogen, cat. 12634028), 4.9% defined fetal bovine serum, heat inactivated (HyClone Laboratories Inc., Logan, UT, cat. SH30070.03HI), 389 ng/mL hydrocortisone (Sigma-Aldrich, cat. H4001), 9.7 ng/mL human EGF recombinant protein (Invitrogen, cat. PHG0313), 23.4 microg/mL adenine (Sigma-Aldrich, cat. A2786), 97.3 U/mL penicillin-streptomycin (Invitrogen, cat. 15140122), 1.9 mM L-glutamine (Invitrogen, cat. 25030081), and 9.7 microM Y-27632 dihydrochloride (Tocris Bioscience, Bristol, United Kingdom, cat. 1254). The PDCs were cultured in complete DMEM/F12 media without 10 microM Y-27632 dihydrochloride for at least two passages prior to the screen. The established cell lines NCI-H1341 and […] were cultured in DMEM/F-12, HEPES (Invitrogen, cat. 11330032), 5% defined fetal bovine serum (HyClone Laboratories Inc., cat. SH30070.03), ITS premix universal culture supplement [insulin (5 microg/mL), transferrin (5 microg/mL), and selenious acid (5 ng/mL)] […]
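Note: compound exposure lasted 7 days after spheroids had grown for 3 days.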

With `Cc1cncc(-c2nc(NCCc3c[nH]c4ccccc34)c3ncn(C(C)C)c3n2)c1`, the IC50 (combination with AhR antagonists, run of 07/18/2022) is recorded as 6.11 µM, 5.12 µM, 5.55 µM, 5.75 µM, > 10 µM, 6.18 µM, 5.79 µM, 5.4 µM, 5.63 µM, 5.66 µM, 6.85 µM, 6.67 µM, 6.72 µM, 7.39 µM, 6.63 µM, 6.76 µM, 6.42 µM, 6.48 µM, 7.2 µM, 4.53 µM, 4 µM, 3.7 µM, 4.64 µM, 3.82 µM. Besides, the viability, T/C by setting is: (compound alone 0.316 µM) 106, 85.5, 108 (2×), 115, 105, 107, 98.2, 104 (3×), 91.2, 81.8, 98.3 (2×), 100, 118, 98.7, 95, 99.7%; (compound alone 1 µM) 109 (3×), 90.8, 117, 100 (2×), 120, 105 (2×), 96.3, 102, 118, 99.8, 121, 128, 110, 115, 97.7, 106%; (compound alone 3.16 µM) 104, 85.3, 96.1, 93.9, 124, 103 (2×), 95.1, 85, 92, 91.9, 107, 102, 96.4, 115, 109, 95.8, 95.2, 105, 112%; (compound alone 10 µM) 10.1, 0.86, 1.8, 9.35, 63.1, 11.7, 9.23, 9.67, 8.1, 8.91, 27.7, 23, 25.3, 26.7, 17, 22.9, 20.9, 22.4, 19, 27.5%.

With `CC(CO)NC(=O)c1cc(-c2ccc(Cl)cc2)nn(-c2cnn(C)c2)c1=O` (stereo not given), the viability, T/C is, setting by setting: (compound alone 0.316 µM) 96.8, 82.8, 105, 96, 108 (2×), 93.9, 99.8, 96.3, 96.7, 82.3, 94 (2×), 90.9, 81.7, 117, 100, 86, 82, 90.3, 95.1%; (compound alone 1 µM) 92.1, 95.8, 88.5, 97.1, 113, 93.2, 86.1, 83.1, 96.3, 87.7, 86.5, 102 (2×), 77.5, 93, 103, 97.6, 97.9, 95.3, 84.7, 91.1%; (compound alone 3.16 µM) 86.8, 69.9, 96.3, 89.4, 90.9, 96.1, 94, 83.4, 71.4, 83.5, 95.9, 71.5, 90.5, 87.5, 78.7, 96.9, 80, 89.2%; (compound alone 10 µM) 87.7, 86, 83.5, 101, 79.5 (2×), 90.3, 76.8, 99.4, 70.4, 77, 89.6, 87.8, 104, 89.3, 93.5, 79.2, 73, 91%.

Take `Nc1ccn(C2OC(CO)C(O)C2(F)F)c(=O)n1` (stereo not given): the IC50 is on record as > 10 µM, 629 nM, 300 nM.

For `Cc1ccccc1N=Nc1ccc(NC(=O)c2ccnn2C)c(C)c1`, the viability, T/C is 95.5, 82.6, 101, 106 (2×), 86.6, 83.1, 91.3, 87, 95.3, 82, 87.3, 77.7, 87.1, 93.2, 99.5, 98.1, 92.9, 86.1, 97.7% (compound alone 0.1 µM); 88.2, 96.5, 111, 105, 99.8, 92.3, 85.3, 91.8 (2×), 95.1, 90.3, 86.6, 78.1, 103, 96.2, 101 (2×), 104, 85.7, 92% (compound alone 0.316 µM); 104, 91.2, 102 (2×), 87.3, 108, 107, 81, 90.4, 89.5, 101 (2×), 96.5, 88.2, 76.4, 97.4, 96.3, 90.5, 90.8, 98.5% (compound alone 1 µM); 100 (3×), 95.7, 109, 94.2, 118, 99.1, 93.8, 91.3, 105, 101, 107 (2×), 82.8, 98.3, 114, 93.2, 106, 85.8% (compound alone 3.16 µM); 118 (2×), 106 (2×), 107 (5×), 125, 102 (2×), 114 (2×), 105, 116, 87.2, 108, 101, 97.2% (compound alone 10 µM).
